Data taken from PubChem BioAssay AID1347417 (National Center for Advancing Translational Sciences (NCATS), 2020).
Out of some 120,000 compounds screened, about 5,300 (4.4%) were called active. Inconclusive results, whose numbers are uncertain, are shown with a selection of clear calls. Calls follow the shape of the dose curve; as a rule, active = well fitted inhibition curve with a large enough effect; inconclusive = small, poorly fitted or top-dose-only effect; inactive = no such curve, though single readings can be large or run the other way. Where the call is inconclusive, the potency comes from a doubtful curve fit.
Potency is read from the fitted curve at half-maximal effect; tags tell the direction and shape of the fitted curve.

Experiment: qHTS Primary assay for Inhibitors of Plasmodium falciparum Dd2 growth in vitro; also: nearly all actives have a fitted effect of over 65% in size;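 as to activity, negative = inhibition: plate controls were DMSO vehicle for no effect and reference drug for full effect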
Details: P. falciparum Dd2 growth, SYBR Green, 72 h; activity, negative = inhibition: at 28.9 µM (top of the series) unless noted; series mostly up to 28.9 µM
Summary of the method: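 Infected erythrocytes (Dd2, 0.3% parasitemia, 2.5% hematocrit final) are added to compound in RPMI-1640/Albumax II medium, grown 72 h at 37C in low oxygen, then lysed with saponin/Triton-X containing SYBR Green and read by fluorescence.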
In the case of `CCCN1CCc2nc(N3CCN(c4ncccn4)CC3)ncc2C1`, the Potency is reported as inconclusive: 8.91 µM [inhibitor, single point].
For `Cc1cccc(OCCCn2c(CCNC(=O)C(C)(C)C)nc3ccccc32)c1`, the Potency was inconclusive: 17.8 µM [inhibitor, single point].
In the case of `CCn1cc2nc(SCc3cc(C)ccc3C)n(Cc3ccc(OC)cc3)c(=O)c2n1`, the Potency is reported as inconclusive: 2 µM [inhibitor, partial curve, poor fit].
With `Cc1ccc(C)c(CN2C(=O)c3ccccc3S(=O)(=O)c3ccc(C(=O)NCc4ccccc4)cc32)c1` the Potency was active: 7.08 µM.
With `COc1ccccc1-c1nnc(C2CCN(C(=O)c3ccc(Cl)cc3)CC2)o1` the Potency was inconclusive: 0.1 µM [inhibitor, full curve, poor fit].
For `Cc1cccc(C)c1-c1nc(C(=O)N(C)C)n2ccccc12`, the Potency was inconclusive: 7.94 µM [inhibitor, partial curve].
For `CN(C)C[C@@H]1CN(C)C[C@H]1NS(=O)(=O)c1ccccc1F`, the Potency was inconclusive: 11.2 µM [inhibitor, single point].
In the case of `CCC(=O)N1CCc2cc(Br)cc(S(=O)(=O)CCC(=O)NCc3ccc(F)cc3)c21`, the Potency is reported as inconclusive: 17.8 µM [inhibitor, single point].
For `O=C1CCc2cc(NC(=O)c3n[nH]c4ccccc34)ccc2N1`, the Potency was inconclusive: 12.6 µM [inhibitor, partial curve, poor fit].
In the case of `CN1CCC(N2CCN(C(=O)c3cc(-c4ccc(F)cc4)cn3C)CC2)CC1`, the Potency is reported as inconclusive: 17.8 µM [inhibitor, single point].
For `O=C(Cc1ccsc1)Nc1ccc2c(c1)CCC(=O)N2`, the “activity, negative = inhibition” value was inactive: -5.81%.
With `Cc1ccc(-n2nc3c(=O)n(CCCC(=O)NCc4ccccc4F)nc(C)c3c2C)cc1` the Potency was inconclusive: 0.158 µM [inhibitor, full curve, poor fit].
With `O=C(Nc1c(C(=O)N2CCN(c3ccccc3F)CC2)oc2ccccc12)c1ccccc1F` the “activity, negative = inhibition” value was inactive: -22.5%.
In the case of `CN1CCN(CCCNC(=O)c2ccc3nc(Cc4ccccc4)oc3c2)CC1`, the Potency is reported as inconclusive: 17.8 µM [inhibitor, single point].
With `Cc1ccc(CNC(=O)c2ccc(N3CC4CC(C3)[C@H]3CCCC(=O)N3C4)nc2)cc1` (stereo partly specified) the “activity, negative = inhibition” value was inactive: -16.9%.
In the case of `Cc1oc(-c2cccc(Cl)c2)nc1CN1CCCC(C(N)=O)C1` (stereo unspecified), the Potency is reported as inconclusive: 5.62 µM [inhibitor, partial curve].
In the case of `CCOc1cc(CNC(=O)Cn2c(-c3cccs3)cc3cc(F)ccc32)ccc1OC`, the Potency is reported as inconclusive: 17.8 µM [inhibitor, single point].
With `CC(C)c1ccc(CN2C[C@@H]3[C@H](C2)N(Cc2ccccc2)C(=O)C(C)(C)[S+]3(=O)[O-])cc1` the Potency was inconclusive: 17.8 µM [inhibitor, partial curve, poor fit].
In the case of `C[C@H]1[C@@H]2[C@@H](O)C([C@H](C)C(=O)NC3CCCCC3)CC[C@@]2(C)CC[C@@H]1NC(=O)c1cncnc1` (stereo partly specified), the Potency is reported as inconclusive: 8.91 µM [inhibitor, single point].
For `CCn1ccc(C(=O)N2CCC(Cc3ncc(C)n3CCOC)CC2)n1`, the “activity, negative = inhibition” value was inactive: -0.704%.
With `O=C(NCc1nc(-c2cccc(F)c2)c(-c2ccccn2)[nH]1)[C@@H]1CCCCN1` the Potency was inconclusive: 8.91 µM [inhibitor, partial curve, poor fit].
In the case of `COCCNC(=O)c1ccc(OC2CCN(Cc3cccc4nonc34)CC2)c(Cl)c1`, the Potency is reported as inconclusive: 3.55 µM [inhibitor, single point].
In the case of `O=C(c1ccncc1)N1CCCCCC1c1nnc(-c2ccccc2)o1` (stereo unspecified), the Potency is reported as inconclusive: 5.01 µM [inhibitor, partial curve, poor fit].
For `O=C1NCc2ccccc2CC12CCCN2Cc1ccccc1OC(F)(F)F` (stereo unspecified), the Potency was inconclusive: 10 µM [inhibitor, single point].
In the case of `CC1Cc2cc(S(=O)(=O)N(Cc3ccccc3)C(C)C)ccc2N1C(=O)C1CCC1` (stereo unspecified), the Potency is reported as inconclusive: 17.8 µM [inhibitor, single point].
With `COCC1CN(C2CCC2)CC12CCN(C(=O)NCc1ccccc1)CC2` (stereo unspecified) the Potency was inconclusive: 0.708 µM [inhibitor, full curve, poor fit].
With `O=C(CSc1nc2c([nH]c3ccccc32)c(=O)n1-c1ccc(Cl)cc1)NCC1CCCO1` (stereo unspecified) the Potency was inconclusive: 7.08 µM [inhibitor, single point].
In the case of `Cc1ccc(CN2C(=O)c3ccccc3Sc3ccc(C(=O)OCc4ccco4)cc32)cc1`, the “activity, negative = inhibition” value is reported as inactive: -15.8%.
With `Cc1cccc(=O)n1CCCn1cc(C2CCCNC2)nn1` (stereo unspecified) the “activity, negative = inhibition” value was inactive: -0.163%.
For `Clc1ccc(Nc2ncncc2-c2nc(-c3ccccc3)no2)cc1`, the Potency was inconclusive: 1.78 µM [inhibitor, partial curve, poor fit].
With `Cc1ccc(S(=O)(=O)c2cn(Cc3ccccc3Cl)c3ccc(F)cc3c2=O)cc1` the Potency was inconclusive: 3.98 µM [inhibitor, partial curve, poor fit].
With `COc1ccc2c(c1)NC(c1cccnc1)=NC(c1ccc(F)cc1)=N2` the Potency was inconclusive: 11.2 µM [inhibitor, single point].
With `COC(=O)C1CCN(S(=O)(=O)c2cc3c4c(c2)CC(=O)N4CCC3)CC1` the Potency was inconclusive: 17.8 µM [inhibitor, single point].
In the case of `N#Cc1ccc(S(=O)(=O)N[C@H]2[C@H](O)[C@H](O)C[C@@H]2c2ccc(C(F)(F)F)cc2)cc1`, the Potency is reported as active: 11.2 µM.
For `O=C(Nc1cccc(F)c1)c1ccc(-c2ccccc2)s1`, the Potency was inconclusive: 8.91 µM [inhibitor, single point].
With `CCCN(CCC)CCCNC(=O)Cn1cnc2sc(C)c(S(=O)(=O)N3CCC(C)CC3)c2c1=O` the Potency was inconclusive: 8.91 µM [inhibitor, partial curve].
For `CCOCCCn1c(=N)c(C(=O)NCC2CCCO2)cc2c(=O)n3cccc(C)c3nc21` (stereo unspecified), the Potency was inconclusive: 17.8 µM [inhibitor, single point].
For `CN1C(=O)CC(C(=O)O)C12CCN(Cc1nc(C(=O)O)co1)CC2` (stereo unspecified), the “activity, negative = inhibition” value was inactive: 12.9%.
For `Cc1ccc(C)c(N2CCN(Cc3csc(C)c3)CC2)c1`, the Potency was inconclusive: 11.2 µM [inhibitor, single point].
With `Cc1ccc(C(=O)NCc2ccc(F)cc2)cc1NC(=O)c1nsc2ccccc12` the Potency was inconclusive: 17.8 µM [inhibitor, single point].
For `CCN(CC)CCNC(=O)c1sc2ncccc2c1-n1cccc1`, the Potency was inconclusive: 11.2 µM [inhibitor, single point].
In the case of `COc1cccc(N2CCN(C(=O)c3ccc(NC(=O)c4nsc5ccccc45)cc3)CC2)c1`, the Potency is reported as inconclusive: 17.8 µM [inhibitor, single point].
With `CN1Cc2ccc(NCc3ccccc3)nc2C(C)(C(=O)NCc2cccs2)C1` (stereo unspecified) the Potency was inconclusive: 0.708 µM [inhibitor, partial curve, poor fit].
With `CCN(C(=O)Cn1cccc1-c1nc(-c2ccccc2)no1)c1cccc(C)c1` the Potency was inconclusive: 10 µM [inhibitor, partial curve, poor fit].
In the case of `COc1ccc(C2Cn3cnc(C(=O)N4CCC(C(=O)Nc5ccc(C)c(C)c5)CC4)c3CO2)cc1` (stereo unspecified), the Potency is reported as inconclusive: 2.82 µM [inhibitor, full curve, poor fit].
For `COc1ccc(C)cc1-n1cnc2cc(C(=O)NC3CCCC3)ccc21`, the Potency was inconclusive: 12.6 µM [inhibitor, partial curve, poor fit].
In the case of `CC1=C(C(=O)OC(C)C)C(c2ccc(C)cc2)CC(=O)N1Cc1cccc(C#N)c1` (stereo unspecified), the Potency is reported as inconclusive: 1.26 µM [inhibitor, full curve, poor fit].
In the case of `CCc1cccc(C)c1NC(=O)Cn1cccc1-c1nc(-c2ccc(OC)c(F)c2)no1`, the Potency is reported as inconclusive: 2.51 µM [inhibitor, full curve, poor fit].
For `O=C(NC1CC1)c1cc(C2CC2)nc2onc(C3CCCN3)c12` (stereo unspecified), the “activity, negative = inhibition” value was inactive: 5.69%.
For `COc1ccc(CNC(=O)CCc2nc(-c3ccc(C)cc3)no2)c(OC)c1`, the Potency was inconclusive: 10 µM [inhibitor, single point].
In the case of `O=C([C@H]1O[C@H](CCN2CCOCC2)CC[C@@H]1O)N1CCN(c2ccccc2)CC1`, the Potency is reported as inconclusive: 31.6 µM [inhibitor, single point].
For `COc1cccc(CCC(=O)Nc2cccc(-c3nnc4n3CCCC4)c2)c1`, the Potency was inconclusive: 10 µM [inhibitor, single point].
For `CC1=C(c2ccc(C)c(C)c2)S(=O)(=O)N=C1N1CCC(C(=O)NC(C)Cc2ccco2)CC1` (stereo unspecified), the Potency was inconclusive: 10 µM [inhibitor, single point].
With `Cn1cc(S(=O)(=O)c2ccccc2)c(=O)c2cc(F)c(N3CCCCCC3)cc21` the Potency was active: 8.91 µM.
For `O=C1CC(c2ccccc2)N(C(=O)Nc2ccccc2)CCCCCN1` (stereo unspecified), the Potency was inconclusive: 10 µM [inhibitor, single point].
For `O=C1Nc2ccccc2C12CCN(Cc1cccc3ccccc13)C2` (stereo unspecified), the Potency was inconclusive: 22.4 µM [inhibitor, single point].
For `CC(C)=CCn1c(-c2ccc(F)cc2)cn2cc(C(=O)N3CC[C@H](O)C3)nc2c1=O`, the Potency was inconclusive: 12.6 µM [inhibitor, single point].
With `Cc1cc(Cl)ccc1NC(=O)NCC1CCOCC1` the “activity, negative = inhibition” value was inactive: 3.09%.
For `COc1ccc(-c2cc3nc4c(c(=O)n3[nH]2)CCN(C(=O)c2ccccc2C)C4)cc1`, the Potency was inconclusive: 7.94 µM [inhibitor, partial curve, poor fit].
In the case of `CNc1cc(C2CC(NS(=O)(=O)c3cc(C)sc3C)C2)nc(N)n1` (stereo unspecified), the Potency is reported as active: 8.91 µM.
For `CCOCCn1c(=O)[nH]c2cc(C(=O)N3CCS(=O)(=O)CC3)ccc21`, the “activity, negative = inhibition” value was inactive: 10.3%.
